Assay results taken from PubChem BioAssay AID1347073 (National Center for Advancing Translational Sciences (NCATS), 2019).
Among all 45,000 compounds or so, about 200 (0.44%) were called active. Not shown: some 7% with an inconclusive outcome. Calls come from the whole dose curve; as a rule, active = well fitted activation curve with a large enough effect; inconclusive = small, poorly fitted or top-dose-only effect; inactive = no such curve, though single readings can be large or run the other way. Some of the results follow.

Assay: qHTS of TDP-43 Inhibitors: NCGC Sytravon Library Screen; note: 0% is about no effect; nearly all actives have a fitted effect of over 55% in size
Conditions: yeast TDP-43 toxicity rescue, BacTiter-Glo growth, 24 h; series mostly up to 46.1 µM; growth rescue (activation): at the top concentration
In short: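 TDP-43-expressing yeast, pregrown in raffinose, seeded at OD600 0.02 in galactose medium with compound for 24 hr at 30 deg C. Growth read by BacTiter-Glo luminescence, so rescue of toxicity appears as activation.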

SMILES	growth rescue (activation)
COc1ccc(OC)c(C(=O)CSc2nnc(Cc3cccs3)n2C)c1	inactive: -8.66%
COc1ccc(C2SCC(=O)N2c2c(C)n(C)n(-c3ccccc3)c2=O)cc1 (stereo not drawn)	inactive: -29.1%
CN1CCN(C(=S)NC(=O)c2cccc(S(=O)(=O)N(C)C)c2)CC1	inactive: 8.39%
O=C(CC1C(=O)NCCN1Cc1ccc(-c2ccccc2)cc1)NCCc1ccccn1 (stereo not drawn)	inactive: 5.52%
Cc1sc(NC(=O)c2ccco2)c(CN2CCN(Cc3ccccc3)CC2)c1C	inactive: 0.437%
CC(C)NC(=O)C1(C)CCN1C(=O)c1ccccc1Oc1ccccc1 (stereo not drawn)	inactive: 10.6%
COc1ccc(CC(=O)Nc2cccc(C(=O)Nc3ccccc3C(=O)O)c2)cc1OC	inactive: 5.53%
CCCCN(C)c1c(C)nc2ccc(C(=O)Nc3ccc(OC)c(OC)c3)cn12	inactive: -1.01%
Cc1cc(Cl)ccc1-c1nc(NCCN(C)C)nc2ccsc12	inactive: 3.68%
Cc1c(NC(=O)c2cn3ccccc3n2)cccc1-n1cnnn1	inactive: -8.7%
COc1ccc(S(=O)(=O)N2CCCCCC2)cc1NC(=O)CN1C(=O)CNC1=O	inactive: 9.68%
Cn1c(N)c(N2CCN(c3ccccc3)CC2)c(=O)[nH]c1=O	inactive: -14.6%
O=C(Cc1ccccc1)NNC(=O)C1CCN(c2ncccn2)CC1	inactive: 3.44%
O=C(Nn1c(-c2ccccc2)nc2ccccc2c1=O)c1ccc([N+](=O)[O-])cc1	inactive: 3.05%
Cc1ccccc1/C=N/Nc1ccc(Cl)nn1	inactive: 5.84%
CC1(C)c2ccccc2N(CC(N)=O)C12C=Cc1ccccc1O2 (stereo not drawn)	inactive: 8.66%
COc1ccccc1C(=O)N/C(=C\c1ccccc1)C(=O)NC(C)C(=O)O (stereo not drawn)	inactive: 11.9%
CC(=O)N1CCCC1(C(=O)O)c1ccccc1 (stereo not drawn)	inactive: 24.4%
CCCCCCC(O)(CCN1CCCCC1)c1ccccc1 (stereo not drawn)	inactive: -2.45%
S=c1[nH]ccn1CCc1ccccc1	inactive: 10.9%
Cc1ccc(S(=O)(=O)NCC2CCCO2)cc1[N+](=O)[O-] (stereo not drawn)	inactive: 3.65%
Brc1ccc(C2=Nc3ccccc3C(c3ccncc3)=NN2)cc1	inactive: 1.55%
COC(=O)C(NS(=O)(=O)c1ccccc1Cl)c1ccccc1 (stereo not drawn)	inactive: 4.6%
O=C(CSc1nnnn1C1CCCC1)NCc1cccs1	inactive: -17.9%
COC(=O)c1ccc(CNC(=O)c2c3c(nc4ccccc24)CCN(Cc2ccccc2)C3)cc1	inactive: -10.4%
CC(C)C12CN3CC(C(C)C)(CN(C1)C3c1ccc([N+](=O)[O-])o1)C2=O (stereo not drawn)	inactive: 33.7%
COc1ccc(C2=NN(C(=O)CSc3ncccn3)C(c3cccc(OC)c3OC)C2)cc1 (stereo not drawn)	inactive: 6.26%

SMILES	growth rescue (activation)
COc1ccccc1N(C)S(=O)(=O)c1ccc(C(=O)Nc2ccc3nc(C)sc3c2)cc1	inactive: 40.2%
COc1ccccc1NC(=O)c1ccc(-n2cncn2)nc1	inactive: 12.9%
COc1ccc(OCC2CNC(=O)O2)cc1 (stereo not drawn)	inactive: -21%
CCCCNC(=O)C1(C)CCN1C(=O)c1ccc2c(c1)CCO2 (stereo not drawn)	inactive: -0.771%
CCOc1ccc(S(=O)(=O)N2CCCC(C(=O)NCc3cccnc3)C2)cc1C (stereo not drawn)	inactive: 15.9%
COc1ccc(OC)c(-n2nnc(-c3nc(-c4cc(OC)c(OC)c(OC)c4)no3)c2C)c1	inactive: 0.711%
CCC(=O)Nc1ccc(Nc2nc(Cl)nc(Nc3ccc(NC(=O)CC)cc3)n2)cc1	inactive: 3.85%
Cc1cccc(OCCCC(=O)NCC(=O)Nc2cccc(C)c2C)c1	inactive: 0.957%
O=C(CNC(=O)c1ccc2ccccc2c1)NC1CCCCC1	inactive: 22.5%
CCC(CC)c1nnc(NC(=O)[C@@H](NC(=O)c2cccc(C)c2)C(C)C)s1	inactive: 11.4%
O=C(CCN1C(=O)c2ccccc2C1=O)Nc1sc2c(c1C(=O)NCC1CCCO1)CCC2 (stereo not drawn)	inactive: 24%
CC(=O)Nc1ccc(-c2csc(NC(=O)CC(NC(C)=O)c3ccccc3)n2)cc1 (stereo not drawn)	inactive: 5.98%
CC(=O)c1c(C)oc2c1cc(NS(=O)(=O)c1ccc(C(=O)O)cc1)c1ccccc12	inactive: -26.5%
O=S(=O)(c1ccc(F)cc1)N1CCN(CC(O)COCC2CCCO2)CC1 (stereo not drawn)	inactive: 9.17%
Cc1cc(C(=O)N2CCC2(C)C(=O)NS(=O)(=O)c2ccccc2Cl)nn1C (stereo not drawn)	inactive: -11.6%
Cc1oc(-c2cccs2)nc1CN1CCC(CO)(CCOc2ccccc2)CC1	inactive: -9.34%
CC(C)Cc1nc2sc3c(c2c(=O)n1N)CC(C)(C)OC3	inactive: 12.1%
Cc1ccc(S(=O)(=O)NCC(=O)OC2CCOC2=O)cc1 (stereo not drawn)	inactive: 10.9%
Cn1c(=O)n(C)c2cc(NS(=O)(=O)c3ccc(Br)s3)ccc21	inactive: 7.22%
O=C(O)/C=C/c1ccc(S(=O)(=O)Nc2ccccc2C(=O)Nc2ccc(F)cc2)cc1	inactive: -2.23%
CCc1nc2ccc(C(=O)NCCOc3ccc(OC)cc3)cn2c1N(C)Cc1nccn1C	inactive: 14.1%
CCN(CC)CCNC(=O)c1ccc(NC(=O)c2ccc(Cl)c(S(=O)(=O)N3CCCCCC3)c2)cc1	inactive: 19.9%
COc1cccc(NC(=O)c2ccc3c(c2)N(CC(=O)N2CCOCC2)C(=O)C(C)(C)O3)c1	inactive: 7.15%
Cc1ccsc1CN(C(=O)COc1ccccc1Cl)C1CCS(=O)(=O)C1 (stereo not drawn)	inactive: 6.93%
O=C(COc1ccccc1)NC1CCS(=O)(=O)C1 (stereo not drawn)	inactive: 0.428%
N#C/C(=C/c1ccc(-c2ccc(S(=O)(=O)N3CCOCC3)cc2)o1)C(=O)NC1CC1	inactive: 22%
